Measurements: the supplement of paper PMC10126150
Sequences with one replicate were seen in a single cluster, so their values are uncertain.

System: ATP
Assay: switch fluorescence ratio, 500 uM ATP over buffer (Cy3 cluster intensity, sum of 5 cycles each) (fold (ratio)); higher = stronger signal-on switching upon ATP binding; sequences stand for … in TCGTCGGCAGCGTCAGATGTGTATAAGAGACAGTTTTTTTTTTTTTTTTTTTTTTTTT…TC
Settings: aptamer strand: ATP DNA aptamer (quencher-CACCTGGGGGAGTATTGCGGAGGAAGG + anchor), 100 nM annealed; ATP concentration: 500 uM; one replicate
Summary of the method: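 Cy3-labelled switching-strand clusters on a modified Illumina MiSeq flow-cell were annealed to 100 nM quencher-labelled ATP aptamer, imaged in selection buffer, then imaged after 15 min with 500 uM ATP at 22 °C. Five buffer/ATP cycles ran, with NaOH stripping and re-annealing between them. The fluorescence ratio is summed target-cycle over summed buffer-cycle Cy3 intensity per cluster, averaged per switch-domain sequence. Clusters outside 100-1000 RFU were excluded.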
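Further: ATP exposure 15 min at 22 °C before imaging.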

| Sequence | switch fluorescence ratio |
| --- | --- |
| ATTTGTTGTT | 1 |
| GGGGTCTACG | 1.01 |
| TTTGAACATT | 0.983 |
| ACTATAGGG | 1.02 |
| ATGTGAAAGT | 1.05 |
| TGCCAAGTTA | 0.975 |
| CCACTGTCCG | 1.04 |
| CTCGAATTTT | 0.979 |
| TAGTCCCTTA | 1.07 |
| CATGGAGAGT | 0.983 |
| GCATTATAAG | 1.04 |
| TGCAGGGGAA | 1 |
| CCAAATTTC | 1.01 |
| TAAGGATTC | 1.02 |
| TTATGGGATA | 1 |
| TGCCACCGCA | 1.3 |
| CGAACCCCTT | 1.19 |
| AGCCTGTAGC | 1.03 |
| AACATGCCGA | 1.09 |
| ATTATTTACA | 1.01 |
| AGGTTGAGGC | 1 |
| ACACTCCACA | 1.45 |
| TTTGGATCGG | 1.01 |

| Sequence | switch fluorescence ratio |
| --- | --- |
| ACTTTCGCGA | 1.28 |
| AGCACGGGGC | 1.05 |
| GCTAGCTCTG | 0.988 |
| TACTCTGTGC | 1.2 |
| AATAACATCA | 1 |
| GTTACGTAAA | 1.19 |
| GTATTGGGTC | 1.03 |
| GGCAGGGAAC | 1.04 |
| ACATCACATT | 1.27 |
| GATAATGAAG | 1.03 |
| CTTTAATAAC | 1.05 |
| TCAACGGGCG | 1.09 |
| TTGGGAGGTC | 1.02 |
| AGACAGTCCG | 1.07 |
| AAACGACGCT | 1.65 |
| TTTGTCGCTC | 1.01 |
| AACTGAGTAC | 0.961 |
| GGTAAGGAGG | 0.946 |
| CGTCGAATTG | 1.02 |
| CGGAATACAT | 1.41 |
| ACACGCCGA | 1.1 |
| CTATGCGTCT | 0.914 |
| TGTGTTCTTT | 0.972 |

| Sequence | switch fluorescence ratio |
| --- | --- |
| ACCGTGTCAT | 0.994 |
| CGAGGGTTCG | 0.984 |
| CGGCACCATG | 0.993 |
| GAACTCTGAA | 1 |
| GCCTCGCAGA | 1.14 |
| CGCTTGTGCT | 1.03 |
| GCATTGGCAG | 1.02 |
| CAGTCATTCT | 1.01 |
| GCGTGGTTTG | 0.928 |
| TGCGGATTTA | 0.964 |
| ATACGCGCCA | 1.07 |
| CGTCTGGTGT | 1.02 |
| CATTAACGGA | 0.994 |
| GCAACTATTC | 1.09 |
| AAAAGAGCGT | 0.954 |
| AGCTGGAACG | 0.989 |
| TTCCAAATTA | 1.01 |
| GTCACTGCTT | 1.09 |
| TCCCAGATTT | 1.21 |
| TGGGAGGCTT | 1 |
| AGTCTCCGTC | 1.05 |
| CATCCGAGTG | 1.53 |
| ATGCCCAACA | 0.948 |

| Sequence | switch fluorescence ratio |
| --- | --- |
| AGCCTATGTG | 1.02 |
| TGATCAGACT | 1 |
| TGCTCGGCCT | 1.02 |
| GGCTCCATAG | 1.13 |
| GCGTTCCACA | 1.1 |
| GTGGACGTAT | 1 |
| CGAAAGAACC | 1.01 |
| AGACAGTCTC | 1.01 |
| CGACTCAGAC | 2.06 |
| TGTTGTCAA | 1.01 |
| GGGCCGGCAC | 0.984 |
| CTCTGGCCCA | 0.97 |
| ACCAAAAACG | 1.11 |
| CAGTGTCCGT | 0.979 |
| ATGCCTTGGT | 1.01 |
| TTCCTGGTTT | 0.994 |
| TCAGATGTTA | 1.03 |
| GCGATCTTTG | 1.03 |
| GTATTCATTA | 1.02 |
| AATGGTAAAA | 1.01 |
| TGGGGATCCA | 0.964 |
| TCCGAACGAT | 3.43 |
| CGGAGTTATT | 1.06 |

| Sequence | switch fluorescence ratio |
| --- | --- |
| GCGTGGGGAC | 1.02 |
| CCATAGCGGT | 5.45 |
| AGGGCACCGG | 1.05 |
| GGGCTCGAGC | 0.966 |
| ATCACATTTG | 1.01 |
| CTACCCGCGG | 1.08 |
| ATGTAGGAG | 0.971 |
| GCCCCCCAGC | 1.57 |
| ATTGGCAACG | 0.971 |
| GGCTGTGGGG | 0.952 |
| CCGCTCTCAG | 1.68 |
| TGAGGCGAAC | 1.33 |
| AGATCATAAA | 1.02 |
| GCTAACGATA | 1.09 |
| AAATGGAACG | 1.01 |
| CGTCGATTTT | 0.999 |
| CGGGTGTGG | 0.983 |
| GACACAACGG | 1.02 |
| ATGCGCTCG | 0.917 |
| TTTTGCATAG | 1.05 |
| ACGCGTCAGT | 0.983 |
| GTGTGCGAGG | 0.968 |
| CTAGGAAGAT | 0.995 |

| Sequence | switch fluorescence ratio |
| --- | --- |
| AGTAAATTG | 0.943 |
| TGATACTGGA | 0.976 |
| AGGTGAACCG | 0.999 |
| ATCTAGGAAC | 0.988 |
| AGGCCCGCCG | 1.01 |
| TTTGCCCAGT | 1.05 |
| CCGCTATTCA | 3.43 |
| CGGCTTGTGA | 1.02 |
| AGCTATATAA | 1 |
| GAGGCATCGG | 1.01 |
| TTGGTTCTC | 0.955 |
| TAATTACATA | 1.07 |
| TAGTGGACAT | 0.998 |
| TACGTTCGG | 0.971 |
| GTACCATCTC | 0.995 |
| ATACGCTTGG | 0.986 |
| GTGCATCTCC | 1.29 |
| TTCTGAACA | 1.01 |
| CCATATGAAG | 0.986 |
| AGGCAGAACT | 1.03 |
| TTAAAAGTG | 0.967 |
| CGCGGCCACG | 1.04 |
| TATGGGGAAA | 1.02 |

| Sequence | switch fluorescence ratio |
| --- | --- |
| TCGAGCGTTT | 1.03 |
| TGTAATAATC | 1.05 |
| ATTGCACTCA | 1.02 |
| CAGGACGGGC | 0.763 |
| ATCGGTCGAG | 1.01 |
| TTATTACAAG | 1 |
| CCATAACAGT | 0.988 |
| ATGCGCTGTG | 1.01 |
| CGATTCATCC | 1.08 |
| CCACTTTCCG | 1.13 |
| CAGTGAATCG | 0.991 |
| AATTGACGCT | 1.03 |
| TTAACCTACT | 1.12 |
| AAGCGAAGTG | 1.05 |
| AGGCAGCTG | 1.04 |
| GCCTGATGCT | 1.11 |
| CGAGCAGGGA | 1.18 |
| TACTGAAAA | 1.04 |
| ATTGCGAGAA | 0.994 |
